Assay results reported in the supplement of paper PMC10126150.
Sequences with one replicate were seen in a single cluster, so their values are uncertain.

Tested on: ATP
Assay: switch fluorescence ratio, 500 uM ATP over buffer (Cy3 cluster intensity, sum of 5 cycles each) (fold (ratio)); higher = stronger signal-on switching upon ATP binding; sequences stand for … in TCGTCGGCAGCGTCAGATGTGTATAAGAGACAGTTTTTTTTTTTTTTTTTTTTTTTTT…TC
Conditions: aptamer strand: ATP DNA aptamer (quencher-CACCTGGGGGAGTATTGCGGAGGAAGG + anchor), 100 nM annealed; ATP concentration: 500 uM; one replicate
In short: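 The fluorescence ratio divides summed target-cycle Cy3 intensity by summed buffer-cycle Cy3 intensity for each cluster and is averaged per switch-domain sequence. Cy3-labelled switching-strand clusters on a modified Illumina MiSeq flow-cell were annealed to 100 nM quencher-labelled ATP aptamer, then imaged in selection buffer and again after 15 min with 500 uM ATP at 22 °C. Five such cycles were run, with NaOH stripping and re-annealing between them, and clusters outside 100-1000 RFU were excluded.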
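Also: ATP exposure 15 min at 22 °C before imaging.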

| Sequence | switch fluorescence ratio |
| --- | --- |
| GGTGAACAGA | 0.994 |
| GGTGAAGCGT | 0.961 |
| GGTGACAACT | 0.938 |
| GGTGACATTT | 1.01 |
| GGTGAGAGGG | 1.01 |
| GGTGATAACG | 0.959 |
| GGTGATAGC | 0.99 |
| GGTGATGCTG | 1.06 |
| GGTGATTGGA | 0.972 |
| GGTGCAGAGG | 0.978 |
| GGTGCAGTCG | 1.08 |
| GGTGCCGAGG | 0.972 |
| GGTGCCGGGT | 1.08 |
| GGTGCCTATT | 0.945 |
| GGTGCCTGAC | 1.4 |
| GGTGCGCGTA | 1.01 |
| GGTGGAAAGT | 0.954 |
| GGTGGAGGCC | 0.954 |
| GGTGGAGTCC | 1.01 |
| GGTGGGCGTT | 0.993 |
| GGTGGGTATC | 1.01 |
| GGTGGGTCAC | 0.966 |

| Sequence | switch fluorescence ratio |
| --- | --- |
| GGTGGTCT | 0.992 |
| GGTGGTTAGC | 0.978 |
| GGTGGTTCGA | 0.966 |
| GGTGGTTTAT | 0.994 |
| GGTGTAAAGC | 0.989 |
| GGTGTAACGT | 0.967 |
| GGTGTAGGTA | 1.03 |
| GGTGTCAGTG | 1.01 |
| GGTGTTCATA | 0.99 |
| GGTGTTGAGC | 0.986 |
| GGTTAATGAC | 0.998 |
| GGTTACAACT | 0.964 |
| GGTTACAGGG | 0.957 |
| GGTTACGTAA | 1.03 |
| GGTTACTTTT | 0.989 |
| GGTTAGAGGC | 0.988 |
| GGTTAGTAAT | 1.01 |
| GGTTCATCTA | 0.978 |
| GGTTCCCCGG | 1.19 |
| GGTTCCTACG | 1.9 |
| GGTTCGATGT | 1 |
| GGTTCGCGTG | 0.954 |

| Sequence | switch fluorescence ratio |
| --- | --- |
| GGTTCGGTCG | 1.01 |
| GGTTCTCCTT | 1.01 |
| GGTTCTGGAC | 0.947 |
| GGTTGAATGC | 1.03 |
| GGTTGACATG | 0.964 |
| GGTTGACTAA | 0.982 |
| GGTTGACTTC | 0.969 |
| GGTTGCAGAA | 1.02 |
| GGTTGCGCCT | 0.981 |
| GGTTGCTAAG | 1.03 |
| GGTTGCTAG | 0.984 |
| GGTTGGGCCC | 0.98 |
| GGTTGTCCGT | 0.999 |
| GGTTGTGCCC | 0.956 |
| GGTTGTTAAA | 0.998 |
| GGTTGTTCA | 0.979 |
| GGTTGTTCGG | 0.991 |
| GGTTTAACCA | 1.01 |
| GGTTTACCCA | 0.959 |
| GGTTTCAGGC | 0.973 |
| GGTTTCG | 0.952 |
| GGTTTGCCAG | 1.01 |

| Sequence | switch fluorescence ratio |
| --- | --- |
| GGTTTGCCTG | 0.974 |
| GGTTTGTA | 0.996 |
| GGTTTGTTAG | 1.02 |
| GTAAAAAAGG | 1.01 |
| GTAAAAAATT | 0.963 |
| GTAAAACCGG | 1.01 |
| GTAAAAGCAA | 1.2 |
| GTAAAATCTA | 1.03 |
| GTAAACATAG | 1.04 |
| GTAAACCGTA | 1.14 |
| GTAAATAGTA | 0.984 |
| GTAACAAACT | 1.04 |
| GTAACCGGAT | 0.985 |
| GTAACGCTGG | 1.03 |
| GTAACTCGTG | 0.986 |
| GTAAGAATTT | 0.994 |
| GTAAGAGTAT | 0.97 |
| GTAAGATTTT | 1.05 |
| GTAAGCGGCT | 0.989 |
